# Assay results reported in the RNAGym collection of RNA variant scans (doi:10.1073/pnas.2313332121).
# Variants at the background level are over-represented here.
# B1: TPR 5TU (parent)
# chain: GGAUCUUCUCGAUCUAACAAAAAAGACAAAUCUGCCACAAAGCUUGAGAGCAUCUUCGGAUGCAGAGGCGGCAGCCUUCGGUGGCGCGAUAGCGCCAACGUUCUCAACUAUGACACGCAAAACGCGUGCUCCGUUGAAUGGAGUUUAUCAUG
# Variants of: B1
# Test: polymerase ribozyme fitness, log enrichment relative to wild type (log ratio); higher = more active; in vitro selection for triplet polymerase activity
# Method in brief: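 Input and output libraries were sequenced on Illumina after a single in vitro selection round, run in triplicate on PCR-built, transcribed mutant libraries of each subunit of a heterodimeric triplet polymerase ribozyme. Selection annealed libraries to a biotinylated primer, the partner subunit and triplets, incubated them frozen at −7 °C, then gel-excised extended constructs for streptavidin-bead capture and RT-PCR. Genotypes with ≥10 input reads and ≥1 read per output were kept. Fitness is the logarithm, taken in base 2, of genotype enrichment divided by wild-type enrichment, using inverse-variance-weighted replicate averages.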
row,Variant,polymerase ribozyme fitness (log ratio)
1,U33G A52G A73G G92C A107U C114U C125U U134C G141C,≤ -4.2
2,G34C A49C A52G U61G C87U C95A,-4.12
3,G34A G48C G59A U102G C114A G143U A147G,≤ -4.2
4,U33G G81A C93U C125U A142C,≤ -4.2
5,C35A C57U A91G C95A A97G A106U G126U G141U,≤ -4.2
6,C35A G67A G80A A150U,≤ -4.2
7,U33A G42C C51A G59C A73G A120C A121U U130A G141A U146G,≤ -4.2
8,U33A G50A U53A C85G C96G A97U C114G U139A,≤ -4.2
9,G34U G58C C69U A91G,≤ -4.2
10,G34U U45G C95U,≤ -4.2
11,C35A A60G C103U A107G U148G,≤ -4.2
12,U33A A49C G50C C76A C85G A138U U151C,≤ -4.2
13,G34A C57G A66U A115U U134C A142U U148G,-3.95
14,C35A C79G U151A,≤ -4.2
15,U33C A41C,-3.48
16,C35A G58C C93A G128U A137C A150G,≤ -4.2
17,C35A C76A C93U A113U U130G A147G,≤ -4.2
18,U33G A41C U53A C75G G88A,≤ -4.2
19,U33G C87A C96U C99A A138U,≤ -4.2
20,C35A A47G G71A C96A C105A C125U,≤ -4.2
21,U33C U53A C116A C125A,≤ -4.2

row,Variant,polymerase ribozyme fitness (log ratio)
1,C35A C57U C93G U134A U139A,≤ -4.2
2,U33A C69G C87G,≤ -4.2
3,G34A U102G,≤ -4.2
4,U33C A91U C99U,≤ -4.2
5,G34U A60C G62A G70A G83C C95G U104C,≤ -4.2
6,C35A C93G A98C C99U G141C,≤ -4.2
7,U33G G65A G70C C108U,≤ -4.2
8,G34U C35A C85A C125A G136C,≤ -4.2
9,C32U G94U C116G,-3.95
10,U33C U56A G86C A91C A120U G141C,≤ -4.2
11,C32U U77G C103G A138U,≤ -4.2
12,U33A A37C C51U G92C U111G,≤ -4.2
13,U33G G81A C93A A115U A119U,≤ -4.2
14,G34U G88A A97G U102A C114G C131G,≤ -4.2
15,U33A C54A C85U G88A,≤ -4.2
16,C35A A60C U90G C96A C108A U134G,≤ -4.2
17,G34A A52G G59C G126A,≤ -4.2
18,G34A U55A G71C C95U U151A,≤ -4.2
19,C35A A52C G67U G68C C76U A115U A120C U134C,≤ -4.2
20,U33C U56G C93U,≤ -4.2
21,C35A A47C G86U,≤ -4.2

row,Variant,polymerase ribozyme fitness (log ratio)
1,C32U U55A U56C G58C G62A A89G G100U U101G,≤ -4.2
2,U33A A49U A52C C54A C75G C87G A107C G126A G143C,≤ -4.2
3,U33G G46C G71A U78G U90G A110C U127C G141C,≤ -4.2
4,U33A A115G U139G,≤ -4.2
5,G34A C99G G100A C129A A147U,≤ -4.2
6,U33G U56A C69U C87G U101C,≤ -4.2
7,C35A C54A G88C G94A A98U C105U U127C G136C G152A,≤ -4.2
8,G34C C76A C85U C118U G140A,≤ -4.2
9,G34U C35U C54U G67C C85A U134A A150C,≤ -4.2
10,U33C C87G G152U,≤ -4.2
11,U33G C51A G65U C125G,≤ -4.2
12,C32U G80U U102G A113U C125U G126A,≤ -4.2
13,C35A C87U,-4.03
14,U33C G67U C69A C93U,≤ -4.2
15,U33C A49C G86A G88C,≤ -4.2
16,U33A C57U A64G G100U G140A,≤ -4.2
17,C35A C99U U127G U135C U148C,≤ -4.2
18,U33A C69U C93A A98C A122G U127A,≤ -4.2
19,U33A C35U U55G C57U C85U C87U A142C,≤ -4.2
20,U33G C38G U82C G84A A98G,≤ -4.2
21,C32U U55G,-1.52

row,Variant,polymerase ribozyme fitness (log ratio)
1,G34A A52C A66U G74A A98U,≤ -4.2
2,U33C C36U C93U,≤ -4.2
3,U33C C35A G84U,≤ -4.2
4,G34C C36A A91C C96U C123G G140A,-4.15
5,G34A G67C U82A A115G C118G,≤ -4.2
6,G34A A39C C93A U101A G133U,≤ -4.2
7,U33A U77G C79G C96G U104A A142G U145A,≤ -4.2
8,G34A G65A C96U G136C,≤ -4.2
9,C35A A91G,≤ -4.2
10,U33G G71A C96U A107C U135A,≤ -4.2
11,U33G C38U C54G C96U,≤ -4.2
12,U33G U53G G80A C87A C96G A115C C132A,≤ -4.2
13,G34U U53G C54A G80A C116U,≤ -4.2
14,U33C G143C,≤ -4.2
15,U33C C36U G59A U111C G128U,≤ -4.2
16,G34U,-1.11
17,G34C,-1.49
18,G34A,-0.292
19,U33A C43G G50U G84A A89U,≤ -4.2
20,U33G G80C G92A C131A U151A,-4.15
21,U33A C96U,≤ -4.2
